One block for each binder: values may come before it.
Tests used:
[1] = biological target: T1, human TNF-α (human, UniProt P01375 part only); test: cell-based or functional assay
[2] = biological target: T2, human Activin A (human, UniProt A4D1W7 311-426, Activin A is a disulfide-linked homodimer of two identical inhibin beta A chains. The chain is given once.); test: cell-based or functional assay
T2 sequence: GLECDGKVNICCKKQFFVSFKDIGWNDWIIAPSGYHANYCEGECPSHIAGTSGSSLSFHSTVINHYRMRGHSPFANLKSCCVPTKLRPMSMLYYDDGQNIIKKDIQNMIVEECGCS

[3] = biological target: T1, human TNF-α; test: BLI (Octet RED96), affinity-purified antagonist captured on biosensor, ligand in solution
T1 sequence (P01375 77-233 limits assumed): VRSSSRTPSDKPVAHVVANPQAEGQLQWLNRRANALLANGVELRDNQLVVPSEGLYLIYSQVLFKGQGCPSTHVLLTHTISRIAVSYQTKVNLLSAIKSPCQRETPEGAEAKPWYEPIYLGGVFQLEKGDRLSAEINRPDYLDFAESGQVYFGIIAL
Protocol: (§1) In this example, the human ligand binding activities of several bifunctional antagonist molecules were measured by biolayer interferometry (BLI) using Octet RED96 (FortéBIO, Pall Corporation, USA). Binding analysis was performed by capturing the polypeptide bifunctional antagonists to biosensors. To measure the rate of association and dissociation, the bifunctional antagonists-captured biosensors were dipped in wells containing different concentrations of ligands (such as TNF-α, Activin A, Activin B, Activin AB, myostatin, and GDF-11) diluted in 1× kinetic buffer for 10 min followed by 10-20 min in 1× kinetic buffer. The bifunctional polypeptide antagonists-captured sensors were also submerged in wells containing 1× kinetic buffer to allow single reference subtraction in order to compensate for natural dissociation of the captured bifunctional antagonists. The binding sensorgrams were collected using the 8-channel detection mode on the biosensor. Data were acquired and analyzed using the FortéBIO data acquisition software v11.1 (FortéBIO, Pall Corporation, USA).

[4] = biological target: T2, human Activin A; test: as above
Protocol: as §1

- IC50; neutralisation of human TNF-α, NF-κB luciferase reporter cells (K536-NF-κB-luc), RLU against A711 (nM Log) [1]: 0.1 nM
- IC50; neutralisation of human Activin A (2 nM), Smad2/3 luciferase reporter cells (CAGA-luc), RLU against A711 (nM Log) [2]: 4.1 nM
- Kd [3]: ~0.1 nM
- Kd [4]: ~0.13 nM
B1: A711 (SEQ ID NO: 49) (Fc fusion)
chain: IYPSGVIGLVPHLGDREKRDSVCPQGKYIHPQNNSICCTKCHKGTYLYNDCPGPGQDTDCRECESGSFTASENHLRHCLSCSKCRKEMGQVEISSCTVDRDTVCGCRKNQYRHYWSENLFQCFNCSLCLNGTVHLSCQEKQNTVCTCHAGFFLRENECVSCSNCKKSLECTKLCLPQIENVKGTEDSGTTGGGGSGGGGSGGGGS[human IgG1 Fc left out]GGGGSGGGGSGGGGSETRECIYYNANWELERTNQSGLERCEGEQDKRLHCYASWRNSSGTIELVKKGCWLDDFNCYDRQECVATEENPQVYFCCCEGNFCNERFTHLPEAGGPEVTYEPPPTAPT

- IC50; neutralisation of human TNF-α, NF-κB luciferase reporter cells (K536-NF-κB-luc), RLU against A305 (nM Log) [1]: 0.1 nM
- IC50; neutralisation of human Activin A (2 nM), Smad2/3 luciferase reporter cells (CAGA-luc), RLU against A305 (nM Log) [2]: 3.7 nM
- Kd [3]: ~0.1 nM
- Kd [4]: ~0.14 nM
B2: A305 (SEQ ID NO: 60) (Fc fusion)
chain: LPAQVAFTPYAPEPGSTCRLREYYDQTAQMCCSKCSPGQHAKVFCTKTSDTVCDSCEDSTYTQLWNWVPECLSCGSRCSSDQVETQACTREQNRICTCRPGWYCALSKQEGCRLCAPLRKCRPGFGVARPGTETSDVVCKPCAPGTFSNTTSSTDICRPHQICNVVAIPGNASMDAVCTSTSPTRSMAPGAVHLPQPVSTRSQHTQPTPEPSTAPSTSFLLPMGPSPPAEGSTGDGGGGSGGGGSGGGGS[human IgG1 Fc left out]GGGGSGGGGSGGGGSETRECIYYNANWELERTNQSGLERCEGEQDKRLHCYASWRNSSGTIELVKKGCWLDDFNCYDRQECVATEENPQVYFCCCEGNFCNERFTHLPEAGGPEVTYEPPPTAPT

— patent US20230391863A1 (published 2023)
